# Source: a collection of fitness landscapes (doi:10.1016/j.celrep.2020.107928)
# Whole data set: some 81,000 sequences, median “one-hybrid fitness for binding NBS DNA” near -0.1, cut for the highest 2% near 0.36. The list shows a part of the results.
# B1: Caulobacter ParB omega fusion; a variant is named by its letters at X, in order, B8GW30 (parent)
# chain: MESVVVGEPGMSEGRRGLGRGLSALLGEVDAAPAQAPGEQLGGSREAPIEILQRNPDQPRRTFREEDLEDLSNSIREKGVLQPILVRPSPDTAGEYQIVAGERAWRAAQRAGLKTVPIMVRELDDLAVLEIGIIENVQRADLNVLEEALSYKVLMEKFERTQENIAQTIGKSXSHVANXMRLLXLPDEVQSYLVSGELTAXHARAIAAAADPVALAKQIIEGGLSVRETEALARKAPNLSAGKSKGGRPPRVKDTDTQALESDLSSVLGLDVSIDHRGSTGTLTITYATLEQLDDLCNRLTRGI
# Variants of: B1
# Experiment: one-hybrid fitness for binding NBS DNA (the Noc-binding site; scaled: cognate 1, non-cognate 0); higher = stronger binding
# Settings: with NBS DNA site
# Procedure, shortened: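 Fitness is the rescaled log change in variant-to-wild-type read ratio, measured by Illumina sequencing of plasmids before and after bacterial one-hybrid selection. The scale puts cognate at 1 and non-cognate at 0. Selection of Caulobacter ParB libraries, four specificity codons randomised, took place in E. coli USO with a HIS3 reporter, site 19 bp from the promoter, over 48 hours at 37°C on M9-minus-histidine with 0.1 mM IPTG and 5 mM 3-AT.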
row,Variant,one-hybrid fitness for binding NBS DNA
1,RPIY,≤ 0.2
2,HVTL,≤ 0.2
3,HAYD,≤ 0.2
4,QMHM,≤ 0.2
5,VKQD,≤ 0.2
6,NCYG,≤ 0.2
7,GWAT,≤ 0.2
8,ILMP,≤ 0.2
9,QQLE,≤ 0.2
10,DSLI,≤ 0.2
11,DRPA,≤ 0.2
12,YWMG,≤ 0.2
13,YMGS,≤ 0.2
14,NGTM,≤ 0.2
15,HHSR,≤ 0.2
16,HAND,≤ 0.2
17,KAWF,≤ 0.2
18,LLKK,≤ 0.2
19,RVQV,≤ 0.2
20,DLSR,≤ 0.2
21,MLIL,≤ 0.2
22,QLTT,0.393
23,YTER,≤ 0.2
24,VKGG,≤ 0.2
25,PCSP,≤ 0.2
26,SPVA,≤ 0.2

row,Variant,one-hybrid fitness for binding NBS DNA
1,GVRS,≤ 0.2
2,SRQC,≤ 0.2
3,LFHD,≤ 0.2
4,TPDI,≤ 0.2
5,HFSN,≤ 0.2
6,ALWW,≤ 0.2
7,QPVL,≤ 0.2
8,VRPR,≤ 0.2
9,TPVW,≤ 0.2
10,MFAC,≤ 0.2
11,KKWG,≤ 0.2
12,ERLH,≤ 0.2
13,RCMQ,≤ 0.2
14,LPKW,≤ 0.2
15,MYAF,≤ 0.2
16,CTAR,≤ 0.2
17,ETHS,≤ 0.2
18,AGIT,≤ 0.2
19,SLLR,≤ 0.2
20,CTHQ,≤ 0.2
21,KFTV,≤ 0.2
22,CAIY,0.201
23,PRNE,≤ 0.2
24,QYLV,≤ 0.2
25,HLLV,≤ 0.2
26,AQDR,≤ 0.2

row,Variant,one-hybrid fitness for binding NBS DNA
1,TVKQ,≤ 0.2
2,CPCW,≤ 0.2
3,AVHD,≤ 0.2
4,FSNL,≤ 0.2
5,PGKY,≤ 0.2
6,GHCR,≤ 0.2
7,ALYG,≤ 0.2
8,PGRL,≤ 0.2
9,QGVW,≤ 0.2
10,CCRF,≤ 0.2
11,IKIA,≤ 0.2
12,VKWC,≤ 0.2
13,GLCA,≤ 0.2
14,WKIT,≤ 0.2
15,IWLG,≤ 0.2
16,INDV,≤ 0.2
17,RFIS,≤ 0.2
18,LEGA,≤ 0.2
19,MRHH,≤ 0.2
20,ETNP,≤ 0.2
21,TSAR,≤ 0.2
22,KQRD,≤ 0.2
23,NRRS,≤ 0.2
24,CVFS,≤ 0.2
25,NFPV,≤ 0.2
